“And” between values parts separate entries of the source, which are not always exact repeats. Equal entries are not always repeated. The whole screen tested about 52,000 compounds, of which about 1,700 (3.3%) were called active. No stated cut-off is given here; in the data, active means survival mostly below about 52% (no sharp cut-off); inactive means mostly above about 56%. The list shows a part of the results.

This assay relates to Wild type. Briefly: growth inhibition of S. aureus wild type versus tarO mutant, primary screen, teichoic acid synthesis inhibitors, RN4220, OD600 (AID 463173). As to conditions: S. aureus RN4220 wild type/DeltatarO growth, OD600, 18 h, stronger effect = lower value, screened at 18.75 µg/mL (by protocol).
For the molecule `COc1ccc(C)cc1NC(=O)c1nnn(Cc2cccc(Br)c2)c1N`, the survival is inactive: 102%.

As for `COc1ccc(C2=NS(=O)(=O)N(C)C(C(=O)NC(C)c3ccccc3)=C2)cc1` (stereo not drawn), the survival was inactive: 78%.

On to `N#Cc1cn(CC(=O)Nc2ccccc2C(F)(F)F)c2ccccc12`, for which the survival was inactive: 100%.

Turning to `COc1ccc(-c2nc3sc(CCNC(=O)Cc4ccccc4)c(C)n3n2)cc1`, the survival was inactive: 135%.

Turning to `CCN(C(=O)CSc1nc2ccccc2n1CC(=O)N(C)C1CCCCC1)c1ccccc1`, the survival is inactive: 133%.

Turning to `O=C1CC(C(=O)NCCc2ccccc2)C2(CCCCC2)O1` (stereo not drawn), the survival was inactive: 103%.

In the case of `CCOC(=O)c1cc(-c2ccccc2)n(CCC(=O)NCCc2ccccc2)c1C`, the survival was active: -2%.

With `CC1=C(C(=O)OC2CCCC2)C(c2ccc(C)o2)C2=C(CCCC2=O)N1` (stereo not drawn), the survival was inactive: 104%.

In the case of `CCN(CC)S(=O)(=O)c1ccc2c(c1)N(CC(=O)NCCCN1CCN(c3ccc(OC)cc3)CC1)C(=O)CO2`, the survival was inactive: 78%.

`Cc1ccc2oc(C(=O)Nc3ccc(S(=O)(=O)N4CCCCC4C)cc3)cc(=O)c2c1` (stereo not drawn): the survival is inactive: 86%.

Regarding `CCCS(=O)(=O)N1CCC(n2c(C)nc3cccnc32)CC1`, the survival is inactive: 79%.

Consider `CCc1ccc(C(=O)c2cn(CC(=O)Nc3cc(OC)ccc3OC)c3ccc(Cl)cc3c2=O)cc1`, for which the survival was inactive: 77%.

With `CC(=O)N1CCc2c(sc3c2c(=O)n(-c2ccccc2Cl)c(=O)n3Cc2cccc(C)c2)C1`, the survival is inactive: 81%.

For `CC(C)(C)C1CCc2c(sc(NC(=O)c3noc4c3CCCC4)c2C#N)C1` (stereo not drawn), the survival is inactive: 89%.

Take `COc1ccccc1NC(=O)CSc1cn(CC(=O)N2CCCC2)c2ccccc12`: the survival is inactive: 96%.

For `CC(=O)c1cccc(NC(=O)CCc2c(C)nc3nc(CN)nn3c2C)c1`, the survival is inactive: 84%.

As to `CCOC(=O)N1CCN(Cc2nc3cc(NC(=O)c4ccccc4Cl)ccc3n2C(C)C)CC1`, the survival is inactive: 94%.

With `O=C(c1ccco1)N1CCN(C2CC(=O)N(c3ccc(F)c(Cl)c3)C2=O)CC1` (stereo not drawn), the survival is inactive: 91%.

Regarding `N#Cc1ccc(NC(=O)CNCC2CCCCC2)cc1`, the survival was inactive: 103%.

As for `CCOC(=O)c1ccc(NC(=O)N2CC3CCCN3c3ccccc32)cc1` (stereo not drawn), the survival was inactive: 112%.

As to `Cc1ccc2nc(-c3cccs3)c(Nc3ccc4c(c3)OCCO4)n2c1`, the survival was inactive: 124%.

Take `CCC1CCCCN1C(=O)CSc1nnc(-c2ccc(OC)c(OC)c2)o1` (stereo not drawn): the survival is inactive: 75%.

With `CCC(=O)N1CCc2cc(S(=O)(=O)NCc3ccc(C)cc3)ccc21`, the survival is inactive: 82%.

For `COc1ccc(Cl)cc1Nc1ccc2cc(S(=O)(=O)N3CCCCC3)ccc2n1`, the survival is inactive: 59%.

For the molecule `NC(=O)COc1cccc(-n2cnnn2)c1`, the survival is inactive: 101%.

On to `CCOc1ccc(NC(=O)c2ccc(F)c(S(=O)(=O)N(Cc3ccc(C(=O)OC)cc3)Cc3ccc(OC)c(OC)c3)c2)cc1`, for which the survival is inactive: 60%.

In the case of `O=C(Cn1cc(C(=O)c2ccco2)c2ccccc21)Nc1ccccc1`, the survival was inactive: 115% and inactive: 54%.

With `CCOc1ccc(N2CC(C)Cn3c2nc2c3c(=O)n(Cc3c(F)cccc3Cl)c(=O)n2C)cc1` (stereo not drawn), the survival is inactive: 82%.

Turning to `CN(C)c1ncc(C(=O)NCc2ccc(Cl)cc2)cn1`, the survival is inactive: 74%.

For `COc1ccccc1NC(=O)C1=C(C)Nc2nc3ccccc3n2C1c1ccccc1Cl` (stereo not drawn), the survival was inactive: 63%.

In the case of `Cc1nc(N)nc2c1C(=O)CC(c1ccccc1)C2` (stereo not drawn), the survival is inactive: 98%.

Take `Cc1ccc(-c2nnn3c2nc(NC2CCC(C)CC2)c2ccccc23)cc1` (stereo not drawn): the survival was active: 4%.

In the case of `Cc1cc(OCC(=O)N2CCC(c3nc4ccccc4s3)CC2)ccc1Cl`, the survival was inactive: 18%.

In the case of `O=C(CSc1ncc(-c2ccccc2)[nH]1)Nc1cccc(Br)c1`, the survival is inactive: 13%.

Turning to `CCOCCc1nnc(NC(=O)C(=O)c2cc(C)n(-c3ccc(Cl)cc3)c2C)s1`, the survival was inactive: 91%.

As to `Cc1cc2n(n1)CCCN2C(=O)Nc1ccc(F)c(Cl)c1`, the survival was inactive: 71%.

With `CCN(Cc1ccccc1)C(c1cccnc1)c1nnnn1Cc1ccccc1` (stereo not drawn), the survival was inactive: 106%.

Turning to `COC(=O)CN1C(C(=O)c2ccccc2)=C(OC(=O)c2ccc(F)cc2)c2ccccc2S1(=O)=O`, the survival is inactive: 88%.

Take `Cc1ccc(S(=O)(=O)c2cnc(SCC(=O)Nc3ccc4c(c3)OCCO4)[nH]c2=O)cc1C`: the survival was inactive: 85%.

For `COc1cccc(NC(=O)c2ccc(CN3CCN(c4ccccc4)CC3)cc2)c1`, the survival is inactive: 122%.

In the case of `COc1cccc(-c2nc3c(C#N)c[nH]n3c2NC2CCCC2)c1OC`, the survival was inactive: 79%.

Take `CC1CCCCN1C(=O)c1ccc2c(c1)N(Cc1ccc(F)cc1)C(=O)c1ccccc1S2(=O)=O` (stereo not drawn): the survival was inactive: 87%.

As for `CCN(CCCNC(=O)c1cc2c(=O)n(CC)c3ccccc3c2s1)Cc1ccccc1`, the survival was inactive: 85%.

For the molecule `COc1cccc(-n2c(C)nc3cc(C(=O)O)ccc32)c1`, the survival was inactive: 143%.

Consider `COc1cc2nc(NC(=O)c3ccc(S(=O)(=O)N4CCc5ccccc54)cc3)sc2cc1OC`, for which the survival is inactive: 75%.

On to `CCc1ccccc1NC(=O)c1sc(-n2nc(C)c(Cc3ccccc3)c2C)nc1C`, for which the survival is inactive: 97%.

Turning to `COc1ccc(CNC(=O)C2CCN(S(=O)(=O)c3ccc4c(c3)CCCN4C(C)=O)CC2)cc1`, the survival is inactive: 77%.

`Cc1ccc(C)c(CSc2nnc3[nH]c(=O)cc(-c4ccccc4)n23)c1`: the survival was inactive: 86%.

For the molecule `CCOC(=O)c1c(S(=O)(=O)NCC(=O)NCc2ccccc2Cl)c(C)n(C)c1C`, the survival was inactive: 89%.

For the molecule `CCCn1cc(S(=O)(=O)c2cc(C)ccc2C)c(=O)c2cc(F)c(N3CCN(CC)CC3)cc21`, the survival was inactive: 89%.

With `Cc1cccc(C)c1-n1ncc(C(=O)N2CCN(c3ncccn3)CC2)c1C1CCN(C(=O)OC(C)(C)C)CC1`, the survival was inactive: 76%.

As for `Cc1cccc(NC(=O)C2CCN(S(=O)(=O)c3ccc4c(c3)CCCN4C(=O)C3CCC3)CC2)c1`, the survival is inactive: 74%.

As to `Cn1c(COc2ccccc2)n[nH]c1=S`, the survival is inactive: 107%.

As for `COCCCn1c(=O)c2sccc2n2c(CCCC(=O)NC3CCC(C)CC3)nnc12` (stereo not drawn), the survival is inactive: 98%.

`COc1ccc(NC(=O)CSc2cn(CCNC(=O)c3c(F)cccc3F)c3ccccc23)cc1`: the survival is inactive: 81%.

Take `O=S(=O)(NCc1ccc2c(c1)OCO2)c1cccc2nsnc12`: the survival was inactive: 104%.

Take `COc1ccc(C(=O)N(Cc2ccc(N(C)C)cc2)CC2CCCO2)cc1` (stereo not drawn): the survival is inactive: 84%.

For the molecule `COc1cc(NC(=O)CSc2nc(-c3ccc(C(C)C)cc3)no2)cc(OC)c1`, the survival was inactive: 90%.

For the molecule `CCCN1CCN(CCCNC(=O)Cn2nc(C)n3c(cc4c(OC)cccc43)c2=O)CC1`, the survival was inactive: 90%.

Turning to `Cc1ccc(NC(=O)CSc2nc3ccc(NC(=O)CCc4ccccc4)cc3s2)cc1`, the survival was inactive: 92%.

Regarding `O=c1[nH]cc(COCC(F)(F)C(F)F)c(=O)[nH]1`, the survival was inactive: 111%.

In the case of `CCN1CCN(Cc2c(O)ccc3c(=O)c(Oc4ccccc4C(C)C)c(C(F)(F)F)oc23)CC1`, the survival was inactive: 78%.

`O=C(N1CCCC1)N1CCC(c2ccc3c(c2)OCO3)CC1`: the survival is inactive: 112%.

Take `CCN(C(=O)Cn1c(=O)n(Cc2ccccc2)c(=O)c2c1c1cc(OC)ccc1n2C)c1ccccc1`: the survival is inactive: 71%.

As for `COc1ccc(-c2noc(-c3ccc(NC4CCCC4)c([N+](=O)[O-])c3)n2)cc1OC`, the survival was inactive: 86%.

For `Cc1ccccc1CNC(=O)c1ccc2nc(C(C)C)oc2c1`, the survival is inactive: 92%.

In the case of `COc1cc(Cl)c(C)cc1NC(c1ccccc1)c1nnc(-c2ccccc2Cl)o1` (stereo not drawn), the survival is inactive: 75%.

With `Cc1ccc(CNC(=O)c2cc3ccc4cccnc4c3[nH]2)cc1`, the survival is active: 0%.

Regarding `COc1ccc(C2=Nc3ccc(OC(F)(F)F)cc3NC(c3cccnc3)=N2)cc1`, the survival was inactive: 78%.

For the molecule `Cc1ccc(C)c(N2CCN(S(=O)(=O)c3cn(C)c(C)n3)CC2)c1`, the survival was inactive: 68%.

`CC(=O)Nc1ccc2nc(NC(=O)CS(=O)(=O)c3ccc(C)cc3)sc2c1`: the survival is inactive: 72%.

As to `CCC(C)n1c(=N)c(C(=O)NC2CCCCC2)cc2c(=O)n3ccccc3nc21` (stereo not drawn), the survival is inactive: 89%.

In the case of `Cc1ccc2c(=O)cc(C(=O)Nc3sc4c(c3C(=O)NCC3CCCO3)CCCC4)oc2c1C` (stereo not drawn), the survival is inactive: 84%.

On to `O=C(Nc1nc(-c2ccc3c(c2)CCN3C(=O)C2CCCCC2)cs1)c1ccco1`, for which the survival was inactive: 87%.

In the case of `Cc1ccc(Cl)cc1NC(=O)CCc1c(C)nc2c3cccnc3nn2c1C`, the survival is inactive: 96%.

As for `O=C(c1cccc(Cl)c1)N1c2ncnn2C2(CCCCC2)[C@@H]2CCCC[C@@H]21`, the survival was inactive: 75%.

As for `Cc1ccc2c(c1)N(C(=O)N1CCC(C(=O)NCCc3ccccc3)CC1)CC(C)O2` (stereo not drawn), the survival is inactive: 86%.

For the molecule `COc1ccc(-c2ccc3c(N)c(C(=O)NCc4ccc(C)cc4)sc3n2)cc1`, the survival is inactive: 101%.

Turning to `CC(C)(C)OC(=O)N1CCC(c2c(C(=O)NCCN3CCOCC3)cnn2-c2ccc(F)cc2)CC1`, the survival is inactive: 89%.

As to `CSc1nnc(-c2ccc(S(=O)(=O)N3CCCC3)cc2)n1C`, the survival was inactive: 101%.

Regarding `O=C(COc1ccc(F)cc1)Nc1nnc(SCc2cc(=O)n3ccccc3n2)s1`, the survival is inactive: 70%.

For `CCOc1ccc(-c2nonc2NC(=O)c2oc3cc(C)ccc3c2C)cc1OCC`, the survival is inactive: 112%.

As to `COc1ccc(C)cc1NC(=O)C(Cc1ccccc1)NS(=O)(=O)c1ccc(Br)s1` (stereo not drawn), the survival was inactive: 132%.

For `COc1ccc(N2Cc3cccc(C(=O)Nc4ccc(Cl)cc4)c3C2=O)cc1`, the survival is inactive: 87%.

Consider `Cc1cc(Cl)ccc1NC(=O)CN1C(=O)COc2ccc(S(=O)(=O)Nc3ccccc3)cc21`, for which the survival was inactive: 87%.

Consider `O=C(Nc1nc2n(n1)C(c1ccccc1)C=C(c1ccc(Cl)cc1)N2)c1ccco1` (stereo not drawn), for which the survival was inactive: 54%.

Consider `COc1cccc(Cn2c(SCc3ccc(C(=O)N4CCCCC4)cc3)nc3ccncc32)c1`, for which the survival is inactive: 79%.

For the molecule `COc1ccc(CCNc2nc(C)cc(C)n2)cc1OC`, the survival is inactive: 122%.

The record behind these values is PubChem BioAssay AID463173 (ICCB-Longwood Screening Facility, Harvard Medical School, 2010).
